The whole screen tested about 310,000 compounds, of which about 2,200 (0.71%) showed an effect of 50% or more. The effect is printed as a negative number. This is one part of the list.
What follows are compounds tested against human ether-à-go-go-related gene (hERG) potassium channel (human, UniProt Q12809) (assay: primary screen, population patch clamp on CHO cells stably expressing hERG).
Sequence of human ether-à-go-go-related gene (hERG) potassium channel (Q12809 whole entry, looked up): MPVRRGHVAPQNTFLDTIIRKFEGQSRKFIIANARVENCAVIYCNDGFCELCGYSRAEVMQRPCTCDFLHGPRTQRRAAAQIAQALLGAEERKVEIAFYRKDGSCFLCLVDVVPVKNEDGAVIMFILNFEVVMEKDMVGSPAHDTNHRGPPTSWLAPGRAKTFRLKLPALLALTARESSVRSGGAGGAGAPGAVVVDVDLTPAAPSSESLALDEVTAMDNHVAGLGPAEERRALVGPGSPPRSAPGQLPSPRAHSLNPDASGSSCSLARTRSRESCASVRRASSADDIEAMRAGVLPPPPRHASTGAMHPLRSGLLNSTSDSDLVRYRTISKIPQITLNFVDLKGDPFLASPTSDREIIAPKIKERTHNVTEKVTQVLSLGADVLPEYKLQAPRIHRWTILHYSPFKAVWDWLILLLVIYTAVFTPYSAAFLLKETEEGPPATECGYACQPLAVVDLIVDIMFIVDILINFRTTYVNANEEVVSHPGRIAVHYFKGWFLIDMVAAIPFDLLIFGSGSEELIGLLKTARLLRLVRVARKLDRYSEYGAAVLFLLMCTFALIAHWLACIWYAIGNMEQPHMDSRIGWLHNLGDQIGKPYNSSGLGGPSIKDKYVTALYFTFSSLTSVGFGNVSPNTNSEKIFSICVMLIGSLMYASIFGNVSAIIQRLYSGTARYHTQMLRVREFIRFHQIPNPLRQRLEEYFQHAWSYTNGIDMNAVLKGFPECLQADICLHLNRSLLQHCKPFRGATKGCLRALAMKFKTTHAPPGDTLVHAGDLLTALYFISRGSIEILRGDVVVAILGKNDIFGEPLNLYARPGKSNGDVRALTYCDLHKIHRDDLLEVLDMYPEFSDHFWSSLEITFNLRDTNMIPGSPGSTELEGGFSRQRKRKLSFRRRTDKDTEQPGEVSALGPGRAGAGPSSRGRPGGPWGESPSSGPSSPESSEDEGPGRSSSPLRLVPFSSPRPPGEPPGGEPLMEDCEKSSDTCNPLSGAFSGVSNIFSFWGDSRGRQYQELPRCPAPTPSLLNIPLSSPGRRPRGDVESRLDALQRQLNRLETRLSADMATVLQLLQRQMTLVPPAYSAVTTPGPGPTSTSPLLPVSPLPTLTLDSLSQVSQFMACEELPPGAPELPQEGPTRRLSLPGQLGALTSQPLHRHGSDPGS

SMILES	hERG current change (%, negative = inhibition) at 1uM
CC1CCc2c(sc3ncn(CC(=O)N=Nc4c(O)[nH]c5ccccc45)c(=O)c23)C1 (centres unmarked)	4.31%
Clc1ccc2c(c1)C(C1=NCCN1)c1ccccc1CS2.O=C(O)/C=C\C(=O)O (centres unmarked)	1.39%
O=C(NCCCc1ccncc1)C1CCC(=O)N(Cc2cccc(F)c2)C1 (centres unmarked)	14.5%
Cl.O=C(NCCCN1CCOCC1)c1ccc(CSc2ccc(Cl)cc2)cc1	-8.96%
O=C(N/N=C/c1c(O)n(-c2ccc(Cl)cn2)c(=O)c2ccccc12)c1ccncc1	25.1%
O=C(NCCN1C(=O)C2C3C=CC(C3)C2C1=O)Nc1ccccc1 (centres unmarked)	-7.26%
CC(C)(C)c1ccc(C(=O)N2CCN(c3nc4ccccc4o3)CC2)cc1	14.5%
COc1ccc(NS(=O)(=O)c2cc(NC(=O)/C=C/c3cc(OC)ccc3OC)ccc2N2CCCCC2)cc1	-7.48%
Cc1sc2ncnc(OCC(=O)N3CCN(C(=O)c4ccco4)CC3)c2c1C	5.55%
COc1cc([N+](=O)[O-])ccc1NC(=O)COC(=O)CCS(=O)(=O)c1ccc(C)cc1	14.6%
COC(=O)c1cccc(NC(=O)CN2CCN(c3ccc(OC)cc3)CC2)c1	4.34%
Br.CCCCCCCC1CC(CSC(=N)N)OC1=O (centres unmarked)	-6.65%
Cc1cccc2c(=O)c(C(=O)NCCc3ccccc3)c[nH]c12	24%
CCn1ncc(C(=O)Nc2cccc(Cl)c2)c1C	3.95%
Cc1nn(-c2ccc(N3CCOCC3)nn2)c(C)c1CCC(=O)NCc1ccc(F)cc1	10.1%
Cc1ccc(C)c(NS(=O)(=O)c2cc(C(=O)NCc3ccccn3)ccc2C)c1	2.23%
COc1ccc(OC)c(S(=O)(=O)N(C)CC(=O)Nc2ccc3c(c2)OCO3)c1	2.14%
Cc1cnc(NS(=O)(=O)c2ccc(Cl)cc2)c(Br)c1	15.4%
CC(C)C(OC(=O)c1ccco1)C(=O)NCc1cccs1 (centres unmarked)	9.85%

SMILES	hERG current change (%, negative = inhibition) at 1uM
Cl.c1ccc(COc2cccc(CNCc3cccs3)c2)cc1	15.5%
COc1ccc(N(C(=O)c2snc(C(N)=O)c2N)C(CC(C)C)C(=O)NCC2CCCO2)cc1 (centres unmarked)	-5.17%
Cc1ccc2c(c1)C1CN(C)CCC1N2C(=O)COc1ccccc1F (centres unmarked)	7.87%
Cc1cc(Nc2ccccc2)nn1C(=O)c1ccccc1	8.68%
COc1ccc(Cl)cc1NC(=O)c1nnn(CC(=O)Nc2ccc(OC)c(OC)c2)c1N	10.5%
O=C(O)CSc1nc2ccccc2[nH]1	13.8%
CC(=O)Nc1ccc(C2=CC(=O)C[C@H](c3ccc4c(c3)OCO4)C2)cc1	12.3%
Cc1cccc(NC(=O)c2nc[nH]c2C(=O)NCC(=O)OC(C)(C)C)c1	12.9%
NS(=O)(=O)c1cc2c(cc1Cl)NC(C(Cl)Cl)NS2(=O)=O (centres unmarked)	13.4%
CC(=O)Nc1c(O)nc(SCC(=O)N2CCCCC2)[nH]c1=O	11%
CN(CC(=O)Nc1ccc(Cl)cc1)C(=O)CNC(=O)c1ccc2ccccc2c1	12.8%
COc1ccc(-n2ncc3c2CC(C)(C)CC3NC(=O)CSc2ccccn2)cc1 (centres unmarked)	-14.1%
Cc1c(C)n(Cc2ccccc2)c2ncnc(NCCN(C)C)c12	9.1%
O=C(C1CCC(CNS(=O)(=O)c2ccccc2)CC1)N1CCOCC1 (centres unmarked)	14.2%
COc1ccc(C(=O)NCCNC(=O)c2cc(OCC(F)(F)F)ccc2OCC(F)(F)F)cc1	7.54%
CCCN(CCC)CCNC(=O)c1cc2c(=O)n(C)c3ccccc3c2n1C	-12.9%
CCOC(=O)Cc1csc(NS(=O)(=O)c2ccc(Cl)cc2)n1	0.926%
O=C(/C(=C/c1cccnc1)n1ccnc1)c1ccc(Cl)cc1Cl	6.78%
C/C(=N\Nc1c(Cl)c(Cl)nc(C(=O)O)c1Cl)c1ccc(O)cc1	14.1%

SMILES	hERG current change (%, negative = inhibition) at 1uM
CC1CCCCN1C(=O)c1cc(F)c(F)cc1Cl (centres unmarked)	11.4%
O=C(Nc1ccc(Cl)c(S(=O)(=O)N2CCOCC2)c1)c1ccc2c(c1)OCCO2	10.3%
O=C(CNC(=O)c1ccc(Cl)cc1)c1ccc(Cl)cc1	11.4%
O=C(O)CCc1ccc(-c2ccc(F)cc2)n1NC(=O)c1ccco1	9.01%
Cc1c(C(=O)NC(=S)NCc2cccnc2)cccc1[N+](=O)[O-]	16.9%
Cc1nnc(SCC(=O)Nc2nsc(-c3ccccc3)n2)s1	9.47%
COc1cc(OC)c(OC)cc1CNc1nnnn1C	-3.98%
Cc1ccc(NC(=O)c2cccc(OC(F)F)c2)c(OC(F)F)c1	4.36%
CC(CCc1ccccc1)NC(=O)Cc1cccs1 (centres unmarked)	1.17%
O=C(Nc1ccccc1F)c1ccc2c(c1)OCO2	15.2%
CC(NC(=O)c1ccccc1OC(F)F)c1ccc(-n2ccnc2)cc1 (centres unmarked)	-12.5%
CCCc1nnc(NC(=O)CCC(=O)N2CCN(C3CCCC3)CC2)s1	14.4%
CC1Sc2ccc(S(=O)(=O)N3CCC(C(=O)N(C)Cc4ccccc4)CC3)cc2NC1=O (centres unmarked)	13.2%
COc1ccccc1N1CCN(CCc2ccccc2)CC1	-17.5%
Cc1ccc(S(=O)(=O)N(C)c2ccc(C(=O)Nc3ccccc3C(=O)N3CCOCC3)cc2)cc1	15.1%
Cc1c(CC(=O)NCC(=O)O)c(=O)oc2cc3oc4c(c3cc12)CCCC4	18.4%
O=C(CN1CCC(NC(=O)c2ccco2)CC1)Nc1ccccc1[N+](=O)[O-]	-2.96%
CCc1ccc(CN2CCC(Oc3ccc(C(=O)N4CCCC4)cc3)CC2)cc1	-77.5%

Reference: paper PMC4336329 (PLoS ONE, 2015)
